Test results: the supplement of paper PMC11417369
± gives the standard deviation of the averaged measurements. This is one part of the list.

These sequences were tested on PfAP2-G AP2 domain (GST-tagged) (assay: gcPBM binding intensity (ln(normalized median fluorescence intensity)); higher = stronger DNA binding).
Method in brief: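 Each value is the highest Masliner-normalised natural-log median intensity across replicate spots of either orientation of a probe. The probes were primer-extended double-stranded 36-bp intergenic genomic sequences on an Agilent 4 × 180k array, alongside negative controls, exposed for 1 h to GST-tagged P. falciparum DNA-binding domains expressed in E. coli. Bound protein was picked up with Alexa488 anti-GST antibody and scanned at 488 nm.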

Sequence	gcPBM binding intensity (ln)
TTATTAAAAATGGTATGTACGCACATAATATATATA [XGTACX_site3230]	11.5 ± 0.71
AACATCATCTCTCCACAACAACAAAAAAAAAAATAC [CACACA_negctrl_site311]	10.2 ± 0.33
AATACATACATACATACATGCATATATATATATATA [TGCATGCA_site462]	10.3 ± 0.35
TTTTTTTTTTTTTTTGCACACTTAAATTTGGTGGGG [CACACA_site2344]	10.7 ± 0.55
CACGCGCACGAACACACACACACACGCATATAAATA [CACACA_site7103]	10.6 ± 0.38
ATATTATTTTATTTTTGTACAGATATCTTTAAAAAA [XGTACX_site3734]	10.9 ± 0.56
TACAGATAAATATACATACATATATATATATATATA [XGTACX_negctrl_site182]	9.86 ± 0.42
TTTTTATTTAAAAGTAGTACAAGGGTTATTATTAAC [XGTACX_site1555]	11.6 ± 0.98
ACATGTATACTTTTTACGAAAAAAAAAAAAAAAAAA [CACACA_negctrl_site1638]	10.1 ± 0.47
TATTTTTATTGGTGAATACACACGTATATATATATT [CACACA_site2401]	10.3 ± 0.23
TGTTTATGTTTACATGTGCGCATTACAGAAAAAAAA [GTGCAC_site9669]	10.7 ± 0.53
GCTTATAAGATATGCACACACAACACTTACAAAAAA [CACACA_site817]	10.3 ± 0.38
AAACAAAAAAAATAAGCACACATATATATATATATA [CACACA_site8173]	10.2 ± 0.64
GAACAAAAAAAAAATTGTACACAATTTTTTAAAATT [XGTACX_site4455]	11.3 ± 0.65
ATGATTTATTATTATACACACAAAAAAAAAAAAGGA [CACACA_site264]	10.2 ± 0.37
AATACATACATATATACATGCATACATATAAATATA [TGCATGCA_site674]	10.1 ± 0.2
TCCTGTGGTTATATAACACACATTATTGCTTATAAG [CACACA_site6823]	10 ± 0.11
TTTTTTAAAAATATTATCATCGTAACAAGAAATCGA [CACACA_negctrl_site1111]	10 ± 0.24
AAAATTATATGTAATTGTACGGAATTATATACGCAA [XGTACX_site2048]	10.9 ± 0.43

Sequence	gcPBM binding intensity (ln)
ATACTAAATGAACACACACACATATAGATTTATAAC [CACACA_site6200]	10.04 ± 0.057
TATCTGTATATGTGTACACATATTCTTAACTCACGC [CACACA_site4255]	11.7 ± 1
ATATTGCTTATTTGATGTACGAATACACTAGTATTA [XGTACX_site4536]	11 ± 0.59
CTGAATTTTTATAACTGTACATATTTGATATAAAAA [XGTACX_site183]	11.3 ± 0.89
ATATTTAATACAAATACACACACAAATATATACATA [CACACA_site9248]	10.1 ± 0.13
ATGGGAAAAACATTCCGTACATACATACACATATAT [XGTACX_site8263]	10.9 ± 0.57
ATTTTATGAAATGTTGCACACAAAAAACAACATGTT [CACACA_site8408]	10.4 ± 0.23
GAACAACAACAAAAAAAAAAAAAAAAAAAAAAAAAA [CACACA_negctrl_site199]	9.71 ± 0.49
TAAATAAATATATGTACACACACAAATATATACATA [CACACA_site8577]	11.4 ± 0.73
TATATGATATAATATACACACATACATATATATATA [CACACA_site8066]	9.9 ± 0.17
CGCATAAAGACAAGAACACACATATATATTGTAGTA [CACACA_site5938]	9.92 ± 0.24
CAACAACAAAAAAAAAAATAATAATAATAAAAAATA [TGCATGCA_negctrl_site271]	9.57 ± 0.16
GTAATTTTATATGGTTGTACATATATATATATATAT [XGTACX_site6659]	11.3 ± 0.91
TTATACCTGATTTAGGTGCTATAAATTTGTGTTTTT	10.1 ± 0.16
ATATATATATATATGTGTACTTATATATTTAAAAAA [XGTACX_site1761]	11.4 ± 0.86
ATATATATATATATATATATTTATATGTGAAAACCC [CACACA_negctrl_site845]	10 ± 0.32
TATTTTTTAAAAAAATGTCATAAAATTTCTTTTTTC [XGTACX_negctrl_site271]	9.9
AGAAAAAAATAATGTACACACACATATATGTTTATA [CACACA_site7946]	11.3 ± 0.82
ATATACAAAGGATTAACACACATATTATTATATATA [CACACA_site1880]	9.8

Sequence	gcPBM binding intensity (ln)
TATATTAAGAAACACACACACATATATATATATATA [CACACA_site1609]	10.2 ± 0.47
TAAATGTCTGTTAATGCACACGATATGTCTATATAT [CACACA_site2352]	9.925 ± 0.021
CTTTCTATATAAAATCGTACATATATAATATTATAT [XGTACX_site5807]	11.3 ± 0.83
TCCGCATGTACATGGGTGCACATAACACCCATTTAA [GTGCAC_site9881]	11.2 ± 0.71
TTCCTATTTCCTATGTGTACTTATAAATAAGTGTCT [XGTACX_site3725]	11.6 ± 0.81
GAAATTATAAATTGGACACACACATAAAAAATATGT [CACACA_site7957]	10.8 ± 0.5
TAATTTTTTAAATTTAAACACACATTTTGTATATGT [CACACA_site8479]	9.96 ± 0.057
TATATATATATATATTGTACGAACCTTTTTTTTTTT [XGTACX_site4169]	11 ± 0.61
TGATACGTATTTATTTCACACACGTTAAAAAAATAA [CACACA_site3914]	10.8 ± 0.78
TTATTTCTGAATATTTTTTTTTTTTCTTCTTTTTTA [CACACA_negctrl_site815]	9.31 ± 0.2
CATGTGTTCTATATTTATGTCTAACTTTTTAATTAA [CACACA_negctrl_site904]	10.1 ± 0.16
CTAACACTAATTTTTTGTACACAATATGTAAATAAA [XGTACX_site6424]	11.2 ± 0.75
ATTTTTACATAGGAAGCATGCATATTTTAAAAATAA [TGCATGCA_site1046]	9.99 ± 0.32
ATATATAATCATCACACATGCAGCCCTGATGAAAAA [TGCATGCA_site687]	9.97 ± 0.14
GGGTATACCAATATAACACACATATATCTATAATAT [CACACA_site6348]	10 ± 0.13
TAATGTAATACATATTGTACACATACATATATATTT [XGTACX_site7531]	11.2 ± 0.71
ATATATATATATATATGTACATATTTATATTGTAAA [XGTACX_site8878]	11.1 ± 0.62
TATAAATTTTTATTTACATGCAGTTATTATTTCCAT [TGCATGCA_site41]	10 ± 0.18
